# Measurements reported in the supplement of paper PMC3334620.
# Over roughly 33,000 sequences, “E-score (-0.5 to 0.5)” has its median near -0.012; the highest 2% begin near 0.29. The list shows a part of the results.
# Molecular target: T1, Ybr033w (UniProt P38073)
# T1 sequence: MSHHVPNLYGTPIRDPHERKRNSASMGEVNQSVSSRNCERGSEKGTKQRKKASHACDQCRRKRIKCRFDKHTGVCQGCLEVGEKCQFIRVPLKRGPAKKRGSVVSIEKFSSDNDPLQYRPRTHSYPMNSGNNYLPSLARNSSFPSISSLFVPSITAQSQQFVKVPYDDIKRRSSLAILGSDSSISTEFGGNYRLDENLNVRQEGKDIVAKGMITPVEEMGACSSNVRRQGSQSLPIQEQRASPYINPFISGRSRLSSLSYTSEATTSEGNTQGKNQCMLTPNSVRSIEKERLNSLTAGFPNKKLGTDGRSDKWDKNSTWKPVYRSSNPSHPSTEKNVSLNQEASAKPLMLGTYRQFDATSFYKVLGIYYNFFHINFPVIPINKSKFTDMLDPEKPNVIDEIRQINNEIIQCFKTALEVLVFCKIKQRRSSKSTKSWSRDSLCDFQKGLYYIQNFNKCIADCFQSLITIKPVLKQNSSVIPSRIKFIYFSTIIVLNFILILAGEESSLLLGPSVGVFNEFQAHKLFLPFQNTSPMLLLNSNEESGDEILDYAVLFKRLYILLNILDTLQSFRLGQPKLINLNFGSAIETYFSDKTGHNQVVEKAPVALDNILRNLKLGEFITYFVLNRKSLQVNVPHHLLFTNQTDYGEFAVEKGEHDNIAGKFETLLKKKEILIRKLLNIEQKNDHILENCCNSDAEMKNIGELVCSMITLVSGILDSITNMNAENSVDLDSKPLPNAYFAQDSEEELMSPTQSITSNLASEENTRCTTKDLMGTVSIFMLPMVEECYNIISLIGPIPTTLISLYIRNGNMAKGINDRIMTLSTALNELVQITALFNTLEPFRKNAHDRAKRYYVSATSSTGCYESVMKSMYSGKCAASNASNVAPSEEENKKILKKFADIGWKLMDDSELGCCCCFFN
# Assay: PBM E-score (8-mer binding enrichment) (E-score (-0.5 to 0.5)); higher = stronger / more preferred TF binding; most listed sequences are background and not binding sites
# Conditions: protein concentration: 200 nM; construct: GST-full length
# Summary of the method: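 Each ungapped eight-base word and its reverse complement, pooled, received an E-score from the Universal PBM Analysis Suite. Underlying scans, normalised with masliner, recorded fluorescent anti-GST bound to GST-tagged yeast transcription factors. These were applied at about 100-200 nM to universal all-10-mer Agilent arrays double-stranded by primer extension.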
row,Sequence,PBM E-score
1,CAGCGATC,-0.107
2,GCAGCTCA,-0.183
3,AGGTCGCA,-0.0726
4,GTTTCAAA,0.157
5,AGGAGGGA,-0.232
6,AGATAAAT,0.286
7,GACACCAC,-0.192
8,AATGTAGC,0.0119
9,ACATACTC,0.104
10,CGTAGTGA,-0.0527
11,ACGGCAGC,-0.211
12,CACGCACG,-0.0844
13,ACAGAGAT,0.0912
14,ATTTTGCC,0.19
15,ATTGGGTG,0.153
16,TGCAGTAA,0.0493
17,ACCGTGGG,-0.225
18,CATCGTGG,-0.198
19,ACTAGGCA,-0.118
20,GTCCGGAA,0.19
21,AATATCTC,0.232
22,GTCCTCGA,-0.0745
23,ACAGAGCA,0.0556
24,ACTCATTA,0.0768
25,ATATTGCG,0.035

row,Sequence,PBM E-score
1,ACGGTGAT,-0.045
2,AGCAACAA,0.205
3,CAACGCGC,0.0456
4,AATACCCC,-0.23
5,CGCCTCAG,-0.182
6,ATTTGATC,0.198
7,CCTATCTA,-0.115
8,AAAACCAG,0.0856
9,ATGGAATA,0.316
10,CCTAGAAC,0.0862
11,TAATCCCA,-0.0193
12,ATCCGTCG,-0.00319
13,GATTGGAC,0.00823
14,GAACTGAC,-0.0888
15,CTGGTCTC,-0.221
16,ACGTTGCC,-0.239
17,ACCCATTG,-0.00202
18,GCAACCAC,-0.0821
19,AGTTGGAG,-0.0321
20,ACAACGCA,-0.121
21,CCACTAAA,0.11
22,AGAGCGAA,0.125
23,GAGGGGTA,-0.17
24,GCTCATGA,0.0368
25,CATTAGAC,-0.0978

row,Sequence,PBM E-score
1,GGGTTTAC,0.118
2,TATAAATA,0.289
3,ATACCTAA,0.316
4,ATACGCCG,-0.149
5,AGCGAGTA,-0.0264
6,GGATGGCC,-0.431
7,AGTGCCAA,-0.0839
8,ACTGGCAC,-0.075
9,GATCTCAA,0.0631
10,CTGAGACC,-0.291
11,AAACTAGC,0.0348
12,GGATAAAC,0.456
13,AACCTGCA,-0.016
14,AACGGGCG,-0.222
15,AATACATA,0.0798
16,GGTTACAA,0.194
17,AAAGCACA,0.0531
18,AAGAAATC,0.146
19,CGCAGGTC,-0.168
20,CCCCGTGA,-0.173
21,GAGAATAA,0.252
22,ACAGCCAT,0.0803
23,AATGGGGG,-0.342
24,AGTTCGAT,-0.00142
25,AACTCCGT,0.116

row,Sequence,PBM E-score
1,AAGAAAGC,-0.134
2,TATCCTCA,0.0552
3,AGGCAACT,0.174
4,AACGAAAT,0.126
5,AAGGGACC,-0.0405
6,ACGGTAAG,-0.0649
7,GCGGGTAC,-0.087
8,ACAACACA,-0.067
9,CAACCGAA,0.0309
10,AGAATGGC,0.0186
11,TCATCGCA,-0.084
12,ACTAGCCC,-0.131
13,AGGGAGTG,-0.202
14,AGCACGTG,-0.0372
15,AATAGTGA,0.167
16,AGAGGCAG,-0.166
17,CCTCATAG,-0.00917
18,AACTGTAT,0.188
19,GCTAGTAC,0.0569
20,CCAGGAAG,-0.00416
21,CGGCTACC,-0.128
22,AATGCGTC,-0.203
23,CAGAGATA,0.169
24,GTTCCTTA,-0.00501
25,ACGGGAAG,-0.123

row,Sequence,PBM E-score
1,CAGAGTAA,-0.0159
2,AGAGCCTC,-0.278
3,CTGGCTCC,-0.142
4,CTGAACCC,-0.024
5,CCAACGAA,-0.0234
6,GAAGTTCC,-0.0574
7,GTACTCCA,-0.0187
8,GAATTCTA,0.176
9,AAGTAACC,0.0992
10,GCGACAAC,0.0118
11,ATGCGTCA,-0.127
12,GCCTAATA,-0.0893
13,CCTCATTC,-0.0147
14,TAGACCGA,-0.0248
15,CTATAAAA,0.112
16,ATCGTATG,0.0892
17,CCGGCGGC,-0.288
18,CCACAAGA,0.0969
19,CACGACAC,0.0137
20,AGACACAC,-0.239
21,GGATAAAA,0.397
22,ATAGCATG,-0.128
23,ATGTTGTC,-0.106
24,CGAACCCC,-0.23
25,AGGTGCGC,-0.0903

row,Sequence,PBM E-score
1,AGGGGCAC,-0.288
2,GTCCGAAC,-0.194
3,CGCGTATA,-0.0208
4,CCGTGGAC,-0.262
5,CACAAACG,0.0842
6,AGTTCAGG,-0.0606
7,CGGGATAA,0.251
8,AGTGGACA,0.0894
9,CCTTTGGC,-0.181
10,ATCTAGCG,-0.132
11,CACCTCCG,-0.0269
12,CGAATTTC,0.237
13,CACTAGAA,0.106
14,AACAACTA,0.147
15,TCCAGCGA,0.0135
16,GCAACTAC,0.0891
17,CGAGGAGC,-0.135
18,TAGAACAA,0.119
19,GTTACCGA,-0.156
20,CTCTATGC,-0.0283
21,CACGACTA,-0.0847
22,GCTAGCCA,-0.132
23,CACGGGCC,-0.35
24,CGTTGGTC,-0.103
25,CCTTTCGC,0.00472

row,Sequence,PBM E-score
1,ACTCCTAT,0.101
2,CACCGTAG,-0.231
3,CGGGTACA,-0.179
4,CGCCCGCG,-0.131
5,CAAGTCGC,-0.159
6,CCATCTCA,-0.0651
7,ACCTTCAA,0.0246
8,ACGAGCAC,-0.159
9,AGAAATTG,0.281
10,GGCCTATA,-0.198
11,CCATCGCA,-0.117
12,CTACTCTC,-0.122
13,ATACGCTC,0.0886
14,AGTGCGGC,-0.034
15,AATTTTAG,-0.00018
16,ATAGCCCC,-0.34
17,GCCAAGCA,-0.0454
18,CAGATCAA,-0.1
19,CCATCAAA,0.134
20,GTATCATA,0.21
21,CTGGACTC,-0.0664
22,AAGCCTTC,-0.214
